# Test results as given in the supplement of paper PMC8728848.
# The other results are listed elsewhere or left out.
# B1: PX9961T-pdi-555-33-555 (Parabacteroides distasonis) (protein)
# chain: FDEETAFQSPTLVYVNTVASLYNNMFKIMGNDRHVYDLNTFSSDEAMLPCRIGDWEDGGLWQNIFLHRWGTMNDLTKNSWDFLYEQIGKCNQSVDKLQAFAEEQPDVEYFKVYLEEVRAVRAFFYYELLDLFARVPLVTSSTTPMSEVKQSERSVVFNFVRSELEEALPYLSDNRSNQKGEYYGRITKPVAYMILAKLALNAEVYADDNWTDGNRPAGKNIKFTVDGKEMNAWEATIAYVDKLEALGYKLQGNFSENFAVANETSVENIFTVPMDPVAYPDAKDYNLVRTRHYDHATAYGQSGWNGSCATVKAMNVFKFGTADEDPRCKLTYFTGEVTGPDGKTIYTEWDGQKVPLKYEPNAPKVYMDASDGLLVKTAGARMAKYEFDQNAQDGGNLHGNDCVIFRFADALLMKAEAKIRLGQNGDDEVNQVRNRVGAKPLQNVTLDTLLDERMLELAWEGVRRQDLIRFGKFTEATVDRYVGVKHFASSLDYQEDKTGYTTVFSIYADILSLNPNLTQNPGY
# What was measured:
# Test in all cases: glycan array binding signal (z-score within array); higher = stronger binding
# Conditions in all cases: glycan notation: IUPAC condensed, linker removed
# [1] = molecular target: Neu5Ac(a2-3)Gal(b1-4)GlcNAc(b1-6)GalNAc
# How it was run: (§1)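 The Consortium for Functional Glycomics database supplied 3228 glycan arrays, of which those lacking an available protein sequence were dropped. The binding signal, a within-array Z-score, was averaged across arrays of the same protein sequence and across linkers. Negative scores can be read as non-binding.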
# [2] = molecular target: Neu5Ac(a2-3)Gal(b1-4)GlcNAc(b1-6)[Gal(b1-3)]GalNAc
# How it was run: as §1
# [3] = molecular target: Neu5Ac(a2-3)Gal(b1-4)GlcNAc(b1-6)[Neu5Ac(a2-3)Gal(b1-3)]GalNAc
# How it was run: as §1
# [4] = molecular target: Neu5Ac(a2-3)Gal(b1-4)GlcNAc6S
# How it was run: as §1
# [5] = molecular target: Neu5Ac(a2-3)Gal(b1-4)[Fuc(a1-3)]GlcNAc
# How it was run: as §1
# [6] = molecular target: Neu5Ac(a2-3)Gal(b1-4)[Fuc(a1-3)]GlcNAc(b1-2)Man
# How it was run: as §1
# [7] = molecular target: Neu5Ac(a2-3)Gal(b1-4)[Fuc(a1-3)]GlcNAc(b1-3)Gal
# How it was run: as §1
# [8] = molecular target: Neu5Ac(a2-3)Gal(b1-4)[Fuc(a1-3)]GlcNAc(b1-3)Gal(b1-4)GlcNAc
# How it was run: as §1
# [9] = molecular target: Neu5Ac(a2-3)Gal(b1-4)[Fuc(a1-3)]GlcNAc(b1-3)Gal(b1-4)[Fuc(a1-3)]GlcNAc(b1-3)Gal(b1-4)[Fuc(a1-3)]GlcNAc
# How it was run: as §1
# [10] = molecular target: Neu5Ac(a2-3)Gal(b1-4)[Fuc(a1-3)]GlcNAc(b1-3)GalNAc
# How it was run: as §1
# [11] = molecular target: Neu5Ac(a2-3)Gal(b1-4)[Fuc(a1-3)]GlcNAc(b1-6)[Gal(b1-3)]GalNAc
# How it was run: as §1
# [12] = molecular target: Neu5Ac(a2-3)Gal(b1-4)[Fuc(a1-3)]GlcNAc(b1-6)[Neu5Ac(a2-3)Gal(b1-3)]GalNAc
# How it was run: as §1
# [13] = molecular target: Neu5Ac(a2-3)Gal(b1-4)[Fuc(a1-3)]GlcNAc6S
# How it was run: as §1
# [14] = molecular target: Neu5Ac(a2-3)Gal6S(b1-4)GlcNAc
# How it was run: as §1
# [15] = molecular target: Neu5Ac(a2-3)Gal6S(b1-4)[Fuc(a1-3)]GlcNAc
# How it was run: as §1
# [16] = molecular target: Neu5Ac(a2-3)GalNAc
# How it was run: as §1
# [17] = molecular target: Neu5Ac(a2-3)GalNAc(b1-4)GlcNAc
# How it was run: as §1
# [18] = molecular target: Neu5Ac(a2-3)[GalNAc(b1-4)]Gal(b1-4)Glc
# How it was run: as §1
# [19] = molecular target: Neu5Ac(a2-3)[GalNAc(b1-4)]Gal(b1-4)GlcNAc
# How it was run: as §1
# [20] = molecular target: Neu5Ac(a2-3)[GalNAc(b1-4)]Gal(b1-4)GlcNAc(b1-3)GalNAc
# How it was run: as §1
# [21] = molecular target: Neu5Ac(a2-3)[Neu5Ac(a2-6)]GalNAc
# How it was run: as §1
# [22] = molecular target: Neu5Ac(a2-6)Gal
# How it was run: as §1
# [23] = molecular target: Neu5Ac(a2-6)Gal(b1-3)GlcNAc(b1-3)[Gal(b1-4)GlcNAc(b1-6)]Gal(b1-4)Glc
# How it was run: as §1
# [24] = molecular target: Neu5Ac(a2-6)Gal(b1-4)Glc
# How it was run: as §1
# [25] = molecular target: Neu5Ac(a2-6)Gal(b1-4)GlcNAc
# How it was run: as §1
# [26] = molecular target: Neu5Ac(a2-6)Gal(b1-4)GlcNAc(b1-2)Man
# How it was run: as §1
# [27] = molecular target: Neu5Ac(a2-6)Gal(b1-4)GlcNAc(b1-2)Man(a1-3)Man(b1-4)GlcNAc(b1-4)GlcNAc
# How it was run: as §1
# [28] = molecular target: Neu5Ac(a2-6)Gal(b1-4)GlcNAc(b1-2)Man(a1-3)[Gal(b1-4)GlcNAc(b1-2)Man(a1-6)]Man(b1-4)GlcNAc(b1-4)GlcNAc
# How it was run: as §1
# [29] = molecular target: Neu5Ac(a2-6)Gal(b1-4)GlcNAc(b1-2)Man(a1-3)[GlcNAc(b1-2)Man(a1-6)]Man(b1-4)GlcNAc(b1-4)GlcNAc
# How it was run: as §1
# [30] = molecular target: Neu5Ac(a2-6)Gal(b1-4)GlcNAc(b1-2)Man(a1-3)[GlcNAc(b1-4)][Neu5Ac(a2-6)Gal(b1-4)GlcNAc(b1-2)Man(a1-6)]Man(b1-4)GlcNAc(b1-4)GlcNAc
# How it was run: as §1
# [31] = molecular target: Neu5Ac(a2-6)Gal(b1-4)GlcNAc(b1-2)Man(a1-3)[Man(a1-6)]Man(b1-4)GlcNAc(b1-4)GlcNAc
# How it was run: as §1
# [32] = molecular target: Neu5Ac(a2-6)Gal(b1-4)GlcNAc(b1-2)Man(a1-3)[Neu5Ac(a2-3)Gal(b1-4)GlcNAc(b1-2)Man(a1-6)]Man(b1-4)GlcNAc(b1-4)GlcNAc
# How it was run: as §1
# [33] = molecular target: Neu5Ac(a2-6)Gal(b1-4)GlcNAc(b1-2)Man(a1-3)[Neu5Ac(a2-6)Gal(b1-4)GlcNAc(b1-2)Man(a1-6)]Man(b1-4)GlcNAc(b1-4)GlcNAc
# How it was run: as §1
# [34] = molecular target: Neu5Ac(a2-6)Gal(b1-4)GlcNAc(b1-2)Man(a1-3)[Neu5Ac(a2-6)Gal(b1-4)GlcNAc(b1-2)Man(a1-6)]Man(b1-4)GlcNAc(b1-4)[Fuc(a1-6)]GlcNAc
# How it was run: as §1
# [35] = molecular target: Neu5Ac(a2-6)Gal(b1-4)GlcNAc(b1-2)Man(a1-6)Man(b1-4)GlcNAc(b1-4)GlcNAc
# How it was run: as §1
# [36] = molecular target: Neu5Ac(a2-6)Gal(b1-4)GlcNAc(b1-2)Man(a1-6)[Gal(b1-4)GlcNAc(b1-2)Man(a1-3)]Man(b1-4)GlcNAc(b1-4)GlcNAc
# How it was run: as §1
# [37] = molecular target: Neu5Ac(a2-6)Gal(b1-4)GlcNAc(b1-2)Man(a1-6)[GlcNAc(b1-2)Man(a1-3)]Man(b1-4)GlcNAc(b1-4)GlcNAc
# How it was run: as §1
# [38] = molecular target: Neu5Ac(a2-6)Gal(b1-4)GlcNAc(b1-2)Man(a1-6)[Man(a1-3)]Man(b1-4)GlcNAc(b1-4)GlcNAc
# How it was run: as §1
# [39] = molecular target: Neu5Ac(a2-6)Gal(b1-4)GlcNAc(b1-2)[Neu5Ac(a2-6)Gal(b1-4)GlcNAc(b1-4)]Man(a1-3)[GlcNAc(b1-4)][Neu5Ac(a2-6)Gal(b1-4)GlcNAc(b1-2)[Neu5Ac(a2-6)Gal(b1-4)GlcNAc(b1-6)]Man(a1-6)]Man(b1-4)GlcNAc(b1-4)GlcNAc
# How it was run: as §1
# [40] = molecular target: Neu5Ac(a2-6)Gal(b1-4)GlcNAc(b1-2)[Neu5Ac(a2-6)Gal(b1-4)GlcNAc(b1-4)]Man(a1-3)[GlcNAc(b1-4)][Neu5Ac(a2-6)Gal(b1-4)GlcNAc(b1-4)Man(a1-6)]Man(b1-4)GlcNAc(b1-4)GlcNAc
# How it was run: as §1
# [41] = molecular target: Neu5Ac(a2-6)Gal(b1-4)GlcNAc(b1-2)[Neu5Ac(a2-6)Gal(b1-4)GlcNAc(b1-6)]Man(a1-6)[Neu5Ac(a2-6)Gal(b1-4)GlcNAc(b1-2)Man(a1-3)][GlcNAc(b1-4)]Man(b1-4)GlcNAc(b1-4)GlcNAc
# How it was run: as §1
# [42] = molecular target: Neu5Ac(a2-6)Gal(b1-4)GlcNAc(b1-3)Gal(b1-3)GlcNAc
# How it was run: as §1
# [43] = molecular target: Neu5Ac(a2-6)Gal(b1-4)GlcNAc(b1-3)Gal(b1-4)GlcNAc
# How it was run: as §1
# [44] = molecular target: Neu5Ac(a2-6)Gal(b1-4)GlcNAc(b1-3)Gal(b1-4)GlcNAc(b1-2)Man(a1-3)[Neu5Ac(a2-6)Gal(b1-4)GlcNAc(b1-3)Gal(b1-4)GlcNAc(b1-2)Man(a1-6)]GalNAc
# How it was run: as §1
# [45] = molecular target: Neu5Ac(a2-6)Gal(b1-4)GlcNAc(b1-3)Gal(b1-4)GlcNAc(b1-3)Gal(b1-4)GlcNAc
# How it was run: as §1
binder,measurement,setting,value
B1,glycan array binding signal (z-score),[1],0.316
same,glycan array binding signal (z-score),[2],-0.463
same,glycan array binding signal (z-score),[3],1.08
same,glycan array binding signal (z-score),[4],-0.441
same,glycan array binding signal (z-score),[5],-0.204
same,glycan array binding signal (z-score),[6],-0.709
same,glycan array binding signal (z-score),[7],-0.663
same,glycan array binding signal (z-score),[8],0.388
same,glycan array binding signal (z-score),[9],0.523
same,glycan array binding signal (z-score),[10],1.68
same,glycan array binding signal (z-score),[11],-0.177
same,glycan array binding signal (z-score),[12],-0.333
same,glycan array binding signal (z-score),[13],-0.587
same,glycan array binding signal (z-score),[14],-0.416
same,glycan array binding signal (z-score),[15],-0.515
same,glycan array binding signal (z-score),[16],-0.359
same,glycan array binding signal (z-score),[17],-0.846
same,glycan array binding signal (z-score),[18],1.56
same,glycan array binding signal (z-score),[19],-0.018
same,glycan array binding signal (z-score),[20],0.061
same,glycan array binding signal (z-score),[21],-0.416
same,glycan array binding signal (z-score),[22],-0.557
same,glycan array binding signal (z-score),[23],0.11
same,glycan array binding signal (z-score),[24],-0.648
same,glycan array binding signal (z-score),[25],0.788
same,glycan array binding signal (z-score),[26],-0.049
same,glycan array binding signal (z-score),[27],-0.412
same,glycan array binding signal (z-score),[28],-0.369
same,glycan array binding signal (z-score),[29],-0.536
same,glycan array binding signal (z-score),[30],-0.122
same,glycan array binding signal (z-score),[31],-0.375
same,glycan array binding signal (z-score),[32],-0.499
same,glycan array binding signal (z-score),[33],0.01
same,glycan array binding signal (z-score),[34],-0.612
same,glycan array binding signal (z-score),[35],-0.818
same,glycan array binding signal (z-score),[36],-0.455
same,glycan array binding signal (z-score),[37],0.259
same,glycan array binding signal (z-score),[38],-0.48
same,glycan array binding signal (z-score),[39],-0.237
same,glycan array binding signal (z-score),[40],0.046
same,glycan array binding signal (z-score),[41],-0.644
same,glycan array binding signal (z-score),[42],0.972
same,glycan array binding signal (z-score),[43],-0.368
same,glycan array binding signal (z-score),[44],0.394
same,glycan array binding signal (z-score),[45],0.075
